± gives the standard deviation of the averaged measurements. Some of the results follow.
system: PfAP2-I AP2 domain 3 (GST-tagged); assay: gcPBM binding intensity (ln(normalized median fluorescence intensity)); higher = stronger DNA binding
Procedure, shortened: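 Binding intensity is the highest Masliner-normalised natural-log median intensity over replicate spots in either probe orientation. To obtain it, GST-tagged P. falciparum DNA-binding domains made in E. coli were incubated for 1 h on an Agilent 4 × 180k array of primer-extended double-stranded 36-bp intergenic genomic probes plus negative controls. Detection used Alexa488 anti-GST antibody with scanning at 488 nm.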

Row | Sequence | gcPBM binding intensity (ln)
1 | TTAATGAAATATTATACACACAAAAAAATAATTTTA [CACACA_site4231] | 7.78 ± 0.22
2 | TACACTTTTTTTTGTACACACTAAAAAGATTAACAA [CACACA_site6037] | 8.05 ± 0.21
3 | TGTATGTATAATTGAGTGCACAGAAAAAAAAAAGAA | 11 ± 0.13
4 | TAATTTTCATATTTCTGTACATATATTATAAATATA [XGTACX_site3480] | 7.76 ± 0.35
5 | AGAAAAAAAAAAAAAAAACACACGGTACATTCAAAG [CACACA_site2] | 7.57 ± 0.67
6 | TAATATATATATATTACACACACGTATTATTAAATA [CACACA_site432] | 7.83 ± 0.44
7 | TCTAACATATTTTTAATACACACTTAAAAAAGTACT [CACACA_site1366] | 8.03 ± 0.3
8 | ATTTACATTATATTGAATATGCCATATTATATTATT [CACACA_negctrl_site811] | 7.58 ± 0.67
9 | AATGCTTTTCATCAAGTGCAATATGTTAATACAAAC [GTGCAC_site9619] | 10.3 ± 0.19
10 | GTAGACTGAAACCACACACACATATATAAATATATT [CACACA_site6433] | 7.96 ± 0.38
11 | AAAAAAAAAAATGGTTGTACTTTTTTTATTTGGTGC [XGTACX_site4498] | 7.84 ± 0.28
12 | TATAAAAGTAGACACACACACATATAAATATAAATA [CACACA_site6567] | 7.72 ± 0.42
13 | TCTATATCAACCAGTTGTACTGAATTTACTATATTT [XGTACX_site4205] | 7.58 ± 0.45
14 | ATAGACTTTTGTTTTGTTTTATTTTATTGTATTGTA [CACACA_negctrl_site618] | 7.61 ± 0.71
15 | TCTTTTTAAATATATACACACCGTGTCTACAGATAC [CACACA_site5784] | 7.87 ± 0.5
16 | ACATGATGTCATAAATGTACGCACACATACATAAAC [XGTACX_site1198] | 8.34 ± 0.33
17 | GAACATTTCACACAAAAAAAAAAAAATATATATATA [TGCATGCA_negctrl_site518] | 9.26 ± 0.028
18 | TACTAATATAATAAAAGTACTTAAATAAATATATGT [XGTACX_site2220] | 7.79 ± 0.43
19 | GTATAAAAGTTATATACACACAACAGAATTACATAT [CACACA_site6212] | 7.82 ± 0.57
20 | TTTGAAAAAAATTAATGTACATTTGAAATGACATAT [XGTACX_site3902] | 7.67 ± 0.33
21 | ATACCTTCTTTTATGTTTAATTAATATACTTTTTAT [CACACA_negctrl_site1557] | 8.39 ± 0.57
22 | AAAAAAAAAAAACACACACACACAAATATATAAAAA [CACACA_site1171] | 7.85 ± 0.28
23 | AATACATACATACATACACACATATAAATATATTAT [CACACA_site7650] | 7.9 ± 0.67

Row | Sequence | gcPBM binding intensity (ln)
24 | TTTGCCCAAAAAGGTACACACCACAATGTACATAAA [CACACA_site4599] | 8.185 ± 0.078
25 | TCATATATGGGTAGTATACACACTGTATATTTAGGA [CACACA_site2844] | 7.79 ± 0.7
26 | TTTTATTTAAATACACGTACATAATGTATATATATA [XGTACX_site7160] | 8.71 ± 0.51
27 | AGATAAAATATATATGCACACACATATATATTTCAT [CACACA_site9183] | 9.255 ± 0.007
28 | ATTCTATATAAATATACACACATATATAAAATACAT [CACACA_site2293] | 7.8 ± 0.57
29 | TTAATAATTAATATATGTACTGATAAATAACATATA [XGTACX_site3966] | 7.54 ± 0.19
30 | TAATTATTTAAAAAGAGTACATTTTTTTTTTTTTTT [XGTACX_site1060] | 8.22 ± 0.49
31 | TGTTTGTAATTATGTATGCACTTTTTTGTATGTGTG [GTGCAC_site9668] | 9.575 ± 0.035
32 | ACATATCTATCGTTTTTAATTGTATATTATTATAAC [TGCATGCA_negctrl_site144] | 7.58 ± 0.65
33 | ATATTCTTGTTTAATACACACTGTAGTATTATATAT [CACACA_site4400] | 8.07 ± 0.6
34 | AGAAAAAAACAACATGCACACGCACCCACAAAAAAA [CACACA_site7908] | 9.06 ± 0.18
35 | TCCCACTGTTATATTGAAAAAAAAAAAAAAAAAAAA [TGCATGCA_negctrl_site288] | 8.05 ± 0.44
36 | TCTTGTATATGTTAAAGTACACAACAATATATATAT [XGTACX_site6814] | 9.1 ± 0.17
37 | AATTATATGCTTAATACGCACACGGGAAAAAAAAAA [CACACA_site1376] | 8.82 ± 0.59
38 | TTTTCAAAAATATACACACACATAAATATCTGTATA [CACACA_site4586] | 7.75 ± 0.52
39 | TAAATAAAAAAAAATCGTACATATATTTTATATATG [XGTACX_site3293] | 7.39 ± 0.21
40 | TCGTAATAATAGTTGAGTACGCACTAATATGTCAAT [XGTACX_site643] | 8.59 ± 0.27
41 | TATTTACATTTTAGTAGTACATATATGTATATATAT [XGTACX_site6839] | 8.32 ± 0.6
42 | TTTATTTGTAACGGTTGTACTTGTATATCATTATGA [XGTACX_site4281] | 7.72 ± 0.4
43 | TAGTGATATAATTATGTGCACTTAATACAGGTCGAT | 10.9 ± 0.3
44 | CTTAAATTTAAGTTCACACATATTGGTCATTTATAT [CACACA_site5006] | 7.71 ± 0.51
45 | CACTAAAATAGACACACACACACACGGATATAAATA [CACACA_site7873] | 7.99 ± 0.32
